Data reported in PubChem BioAssay AID504332 (National Center for Advancing Translational Sciences (NCATS), 2011).
“And” between values parts separate entries of the source, which are not always exact repeats. Equal values may be shown once. Hit rate of the full screen: of about 350,000 compounds, about 31,000 (8.9%) were called active. The inconclusive results got no clear call from the source; some entries with a clear call stand among them for comparison. The call rests on the fitted dose curve; in most records, active means well fitted inhibition curve with a large enough effect; inconclusive means small, poorly fitted or top-dose-only effect; inactive means no such curve, though single readings can be large or run the other way. Potencies beside an inconclusive call are fits to weak or partial responses and may not hold up.
Further: nearly all actives have a fitted effect of over 75% in size.
On the % scale 0 is the no-effect control and ±100 the full control effect; potency means the concentration at half of the fitted maximal effect; tags describe the fitted curve by direction and shape.

These compounds were tested against Histone-lysine N-methyltransferase EHMT2 (Homo sapiens) (UniProt Q96KQ7) (assay: qHTS Assay for Inhibitors of Histone Lysine Methyltransferase G9a). Details: G9a H3K9 monomethylation, AlphaScreen, 2 h; activity, negative = inhibition: at 59 µM (top of the series) unless noted.
Sequence of UniProt Q96KQ7 (Q96KQ7 whole entry, looked up): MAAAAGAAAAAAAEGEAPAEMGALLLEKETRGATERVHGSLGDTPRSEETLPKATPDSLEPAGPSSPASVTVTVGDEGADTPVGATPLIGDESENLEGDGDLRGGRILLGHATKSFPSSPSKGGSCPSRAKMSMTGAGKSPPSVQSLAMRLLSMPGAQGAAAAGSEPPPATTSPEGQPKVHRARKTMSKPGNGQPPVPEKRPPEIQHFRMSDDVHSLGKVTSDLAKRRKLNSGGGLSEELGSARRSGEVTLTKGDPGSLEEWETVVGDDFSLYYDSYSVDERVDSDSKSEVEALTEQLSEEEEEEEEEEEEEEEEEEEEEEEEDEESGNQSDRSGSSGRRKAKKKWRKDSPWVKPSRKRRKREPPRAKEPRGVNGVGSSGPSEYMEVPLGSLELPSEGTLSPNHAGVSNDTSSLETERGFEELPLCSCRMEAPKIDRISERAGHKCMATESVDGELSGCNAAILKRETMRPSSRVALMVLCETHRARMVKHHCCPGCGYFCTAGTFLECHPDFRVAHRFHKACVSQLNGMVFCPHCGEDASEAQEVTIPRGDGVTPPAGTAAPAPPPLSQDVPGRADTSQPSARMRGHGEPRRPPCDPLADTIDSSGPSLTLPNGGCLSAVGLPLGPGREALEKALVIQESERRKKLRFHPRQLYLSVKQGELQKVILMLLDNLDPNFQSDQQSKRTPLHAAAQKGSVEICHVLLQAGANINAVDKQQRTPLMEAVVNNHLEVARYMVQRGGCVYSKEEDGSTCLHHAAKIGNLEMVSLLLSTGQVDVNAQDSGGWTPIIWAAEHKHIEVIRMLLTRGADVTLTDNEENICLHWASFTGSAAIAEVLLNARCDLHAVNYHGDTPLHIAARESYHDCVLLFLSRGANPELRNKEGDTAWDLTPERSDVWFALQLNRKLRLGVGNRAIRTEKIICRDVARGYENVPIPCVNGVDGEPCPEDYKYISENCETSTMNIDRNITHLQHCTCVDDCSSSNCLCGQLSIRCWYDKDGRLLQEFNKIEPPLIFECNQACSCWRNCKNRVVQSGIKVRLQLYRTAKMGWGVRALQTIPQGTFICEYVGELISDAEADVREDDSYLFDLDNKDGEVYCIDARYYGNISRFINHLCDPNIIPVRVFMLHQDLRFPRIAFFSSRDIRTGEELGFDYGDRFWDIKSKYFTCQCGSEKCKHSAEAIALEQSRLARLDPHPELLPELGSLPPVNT
Outline: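 Enzyme 20 nM + cpd, 15 min RT; add b-H3K9 pep 500 nM / SAM 20 uM; 2 h RT; anti-H3K9me1 Ab 0.5 ug/mL + SA donor / anti-rabbit acceptor beads 20 ug/mL each, 10 min; AlphaScreen read.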
For `Cc1ccc(NC2(c3ccccc3)C(=O)c3ccccc3C2=O)cc1F`, the Potency was active: 12.6 µM. `COc1ccccc1NC(=O)CSc1nc(C)c2c(c1C#N)CCCC2` was tested, and the Potency was inconclusive: 50.1 µM [inhibitor, partial curve, poor fit]. `CCCc1nc2c(C)ccc(C)c2c(N)c1CC` was tested, and the activity, negative = inhibition was inconclusive: -133% [inhibitor]. `Cc1ccc2scc(N3CCCCC3C)c(=O)c2c1` (centres undefined) was tested, and the “activity, negative = inhibition” value was inactive: -49.6%. With `Cn1c(=O)n(C)c2cc(NS(=O)(=O)c3ccc(Br)s3)ccc21` the Potency was inconclusive: 70.8 µM [inhibitor, single point]. For `CCn1c(SCC(=O)n2nc(C)cc2C)nnc1-c1ccc2c(c1)OCO2`, the Potency was inconclusive: 89.1 µM [inhibitor, single point]. `O=C(O)/C=C/c1ccc(S(=O)(=O)Nc2ccccc2C(=O)Nc2ccc(F)cc2)cc1` was tested, and the Potency was inconclusive: 89.1 µM [inhibitor, single point]. `Cc1ccc(S(=O)(=O)NCC(=O)OC2CCOC2=O)cc1` (centres undefined) was tested, and the Potency was inconclusive: 89.1 µM [inhibitor, partial curve, poor fit]. With `Cc1ccc(C2CC(=O)N(Cc3ccc(F)cc3)c3c2c(C)nn3-c2nc(C)cc(C)n2)cc1` (centres undefined) the “activity, negative = inhibition” value was inactive: -22.1%. `Cc1cccn2c(=O)nc(SCC(=O)N3N=C(c4cccs4)CC3c3ccc(F)cc3)nc12` (centres undefined) was tested, and the Potency was inconclusive: 79.4 µM [inhibitor, partial curve, poor fit]. For `O=[N+]([O-])c1nn(-c2ccc(Cl)cc2)n(O)c1=NCc1cccnc1`, the Potency was inconclusive: 10 µM [inhibitor, partial curve, poor fit]. In the case of `c1ccc(C2c3[nH]c4ccccc4c3CCN2Cc2cccn2-c2cccnc2)nc1` (centres undefined), the Potency is reported as inconclusive: 56.2 µM [inhibitor, partial curve, poor fit]. `CCC(C(=O)NC1CCCCC1)n1c(SCc2ccccc2F)nc2ccncc21` (centres undefined) was tested, and the Potency was inconclusive: 89.1 µM [inhibitor, single point] and inconclusive: 35.5 µM [inhibitor, partial curve, poor fit]. In the case of `COc1ccc(C(=O)NCc2nnc(SCC(=O)Nc3cc(C)on3)o2)cc1OC`, the Potency is reported as inconclusive: 15.8 µM [inhibitor, partial curve, poor fit]. In the case of `COc1ccc(-c2ncccc2O)cc1`, the “activity, negative = inhibition” value is reported as inactive: 0.761% [at 102 µM]. `Cc1ccn2cc(-c3cccc(S(=O)(=O)N4CCCC4)c3)nc2c1` was tested, and the “activity, negative = inhibition” value was inactive: 0.65% [at 102 µM]. With `Cc1nc(SCC(=O)Nc2ccc3c(c2)OCCO3)nc(C)c1C` the Potency was active: 22.4 µM. In the case of `CS(=O)(=O)NN1C(=O)c2ccccc2NC1c1ccccc1` (centres undefined), the “activity, negative = inhibition” value is reported as inactive: -27.7% [at 102 µM]. In the case of `COc1ccccc1NC(=O)CSc1nc2c(sc3ccccc32)c(=O)n1CCN(C)C`, the Potency is reported as inconclusive: 39.8 µM [inhibitor, single point]. `C=C1C(=O)O[C@@H]2C[C@@H](C)[C@@H]3C=CC(=O)[C@@]3(C)[C@@H](OC(C)=O)[C@H]12` was tested, and the Potency was inconclusive: 3.16 µM [inhibitor, single point]. In the case of `CNC(=O)COc1ccccc1C(=O)Nc1ccc2c(c1)oc1ccccc12`, the Potency is reported as inconclusive: 79.4 µM [inhibitor, single point]. `Cc1ccc(NC(=O)c2cc(N(C)C)ccc2[P+](=O)O)cc1` was tested, and the Potency was active: 28.2 µM. For `CCOC(=O)CSc1nc2sc3c(c2c(=O)n1Cc1ccccc1)CC(C(C)C)OC3` (centres undefined), the “activity, negative = inhibition” value was inactive: -8.59%. For `CCCNC(=O)c1csc(Nc2cccc3ccccc23)n1`, the activity, negative = inhibition was inactive: 16.1% [at 0.501 µM]. In the case of `COc1c2c(cc3oc(=O)ccc13)OC(C)(C)C=C2`, the Potency is reported as inconclusive: 1.41 µM [inhibitor, single point]. `COC(=O)C1=C(C)N(CCc2ccc(OC)c(OC)c2)C(=O)/C1=C\c1ccc(O)cc1` was tested, and the Potency was active: 10 µM. With `CC(NC(=O)c1cc(S(=O)(=O)N2CCOCC2)ccc1F)c1ccc(-n2ccnc2)cc1` (centres undefined) the Potency was inconclusive: 3.55 µM [inhibitor, full curve, poor fit]. `COc1ccc(CN=C(N)N=C(N)N)cc1Cl` was tested, and the Potency was inconclusive: 89.1 µM [inhibitor, partial curve, poor fit]. In the case of `O=C(O)Cc1sc(Nc2ccc(Cl)cc2)nc1-c1cccs1`, the Potency is reported as inconclusive: 5.01 µM [inhibitor, full curve, poor fit]. `Cc1ccccc1Cn1c(CN2CCc3ccccc3C2)nc2c1c(=O)n(C)c(=O)n2C` was tested, and the Potency was inconclusive: 25.1 µM [inhibitor, single point]. For `c1cncc(-c2cncnc2NCc2cccs2)c1`, the activity, negative = inhibition was inactive: -39.2% [at 0.501 µM]. For `COc1ccc(Nc2nc3ccccc3nc2NS(=O)(=O)c2ccc(NC(C)=O)cc2)cc1`, the “activity, negative = inhibition” value was inactive: -33.4% [at 102 µM]. For `O=C(c1ccccc1)c1ccc2nc(N3CCCCC3)c3nncn3c2c1`, the Potency was active: 44.7 µM. `CCOC(=O)c1ccc(NC(=O)CSc2nnc(CCc3ccc(C)o3)n2-c2ccccc2)cc1` was tested, and the Potency was active: 44.7 µM. `Cc1cccc(OC(C)C(=O)Nc2nccs2)c1` (centres undefined) was tested, and the “activity, negative = inhibition” value was inactive: 7.3% [at 102 µM]. In the case of `CCOc1cc(/C=N/NC(=O)c2cccc([N+](=O)[O-])c2)ccc1OS(=O)(=O)c1ccccc1`, the “activity, negative = inhibition” value is reported as inactive: 12.3% [at 102 µM]. For `CC(C)c1nc(=S)c2ccccc2[nH]1`, the activity, negative = inhibition was inconclusive: -56.1% [inhibitor]. In the case of `COc1ccc(C2CC(c3ccc(F)cc3)=NN2c2ccccc2)cc1OC` (centres undefined), the Potency is reported as inconclusive: 63.1 µM [inhibitor, single point]. With `Cc1ccc(-c2nc3c4ccccc4ccn3c2CN2CCCCC2)cc1` the Potency was inconclusive: 28.2 µM [inhibitor, single point]. For `CCCC(C)NS(=O)(=O)c1ccccc1` (centres undefined), the “activity, negative = inhibition” value was inactive: -0.83% [at 102 µM]. `Cc1cc(C(=O)NCC2CCCO2)sc1C` (centres undefined) was tested, and the activity, negative = inhibition was inactive: 9.46% [at 0.501 µM]. `COc1ccc(NC(=O)Cn2c(=O)n(CCCC(=O)NCc3ccccc3Cl)c(=O)c3ccccc32)c(OC)c1` was tested, and the “activity, negative = inhibition” value was inactive: -11.4%. `CCOc1cc(NC(=O)Nc2ccccc2)c(OCC)cc1NC(=O)CC` was tested, and the Potency was inconclusive: 3.98 µM [inhibitor, partial curve, poor fit]. For `O=C(COc1nsnc1N1CCOCC1)Nc1ccc([N+](=O)[O-])cc1`, the Potency was inconclusive: 89.1 µM [inhibitor, single point]. With `CN1CCN(C(=S)c2ccc(Br)cc2)CC1` the Potency was active: 20 µM. With `CSc1ccccc1C(=O)OCC(=O)N1CCCC1=O` the Potency was inconclusive: 4.47 µM [inhibitor, single point]. With `O=C(O)c1oc2ccccc2c1-n1cccc1` the Potency was inconclusive: 63.1 µM [inhibitor, partial curve, poor fit]. With `CCOc1ccc(C2C(=O)N(C3CCCCC3)CC(=O)N2Cc2ccc(F)cc2)cc1OC` (centres undefined) the “activity, negative = inhibition” value was inactive: 10.8%. `COc1ccc(N2CCN(c3ncccc3-c3nc(-c4ccccc4C)no3)CC2)cc1` was tested, and the Potency was inconclusive: 35.5 µM [inhibitor, single point]. For `O=C(CSc1nc2[nH]ncc2c(=O)[nH]1)Nc1cccc([N+](=O)[O-])c1`, the Potency was inconclusive: 79.4 µM [inhibitor, partial curve, poor fit]. In the case of `CCCCC(=O)Nc1nc(C)c(-c2csc(Nc3cc(Cl)ccc3OC)n2)s1`, the Potency is reported as inconclusive: 31.6 µM [inhibitor, single point]. `Cc1c(C(=O)NCc2ccccc2Cl)oc2c1C(=O)CCC2` was tested, and the Potency was inconclusive: 89.1 µM [inhibitor, single point]. In the case of `Cc1ccc(C)c(N2CCN(S(=O)(=O)c3ccc4[nH]c5c(c4c3)CCCC5)CC2)c1`, the Potency is reported as inconclusive: 17.8 µM [inhibitor, partial curve, poor fit]. In the case of `CO/C([O-])=N/c1c[n+](-c2ccc(C)cc2)no1`, the Potency is reported as active: 20 µM. In the case of `O=C(CSc1nc2ccc(NC(=O)CSc3nnnn3Cc3ccccc3)cc2s1)Nc1ccccc1`, the Potency is reported as inconclusive: 28.2 µM [inhibitor, single point]. In the case of `COc1ccc(NC(=O)n2nc(OC(=O)c3cccs3)cc2N)cc1`, the activity, negative = inhibition is reported as inconclusive: -71.8% [inhibitor]. For `CC(Oc1ccc(Cl)cc1)C(=O)Nc1ccccc1C(=O)N1CCOCC1` (centres undefined), the Potency was inconclusive: 3.16 µM [inhibitor, full curve]. `CCOC(=O)c1sc2ccccc2c1S(=O)(=O)Nc1cc(OC)ccc1OC` was tested, and the Potency was inconclusive: 20 µM [inhibitor, partial curve, poor fit]. For `CCc1cccc(C)c1Nc1c(-c2ccc(F)cc2)nc2sccn12`, the Potency was inconclusive: 31.6 µM [inhibitor, single point]. For `COc1ccc2nc(NC(=O)c3ccc4ncsc4c3)sc2c1`, the Potency was inconclusive: 89.1 µM [inhibitor, single point]. In the case of `COC(=O)c1c(NC(=O)C(=O)N2CCCCC2)sc2c1CC(C)(C)OC2`, the Potency is reported as inconclusive: 89.1 µM [inhibitor, single point]. In the case of `O=C(CC(C(=O)O)c1ccc(Cl)cc1)c1ccc(Br)cc1` (centres undefined), the “activity, negative = inhibition” value is reported as inactive: -5.55% [at 102 µM]. With `NC(=O)C1=C[C@H](c2ccc(C(F)(F)F)cc2)C[C@H](OCCCCO)O1` the activity, negative = inhibition was inconclusive: -71.3% [inhibitor]. With `CO/N=C/C1C(=O)NN=C1c1ccccc1` (centres undefined) the Potency was inconclusive: 56.2 µM [inhibitor, partial curve, poor fit]. `O=Cc1c(C(=O)O)n(CC(=O)O)c2ccccc12` was tested, and the Potency was inconclusive: 89.1 µM [inhibitor, single point]. With `N#Cc1nc(-c2ccc(COc3ccc(Cl)cc3)o2)oc1N1CCCCC1` the Potency was active: 3.16 µM. In the case of `CC1CCCCC12NC(=O)N(CC(=O)Nc1ccc(N3CCOCC3)cc1)C2=O` (centres undefined), the Potency is reported as inconclusive: 70.8 µM [inhibitor, partial curve, poor fit]. With `NS(=O)(=O)c1ccc(Cc2ncc(C(F)(F)F)cc2Cl)s1` the Potency was inconclusive: 25.1 µM [inhibitor, single point]. With `CCn1c(SCC(=O)N/N=C\c2ccccc2OCC(=O)O)nnc1-c1ccc(Cl)cc1` the Potency was inconclusive: 22.4 µM [inhibitor, single point].
